The list shows a part of the results.

The target of the assay is T1, MBP-FoxP1dN (Mus musculus, UniProt P58462 326-579).
T1 sequence: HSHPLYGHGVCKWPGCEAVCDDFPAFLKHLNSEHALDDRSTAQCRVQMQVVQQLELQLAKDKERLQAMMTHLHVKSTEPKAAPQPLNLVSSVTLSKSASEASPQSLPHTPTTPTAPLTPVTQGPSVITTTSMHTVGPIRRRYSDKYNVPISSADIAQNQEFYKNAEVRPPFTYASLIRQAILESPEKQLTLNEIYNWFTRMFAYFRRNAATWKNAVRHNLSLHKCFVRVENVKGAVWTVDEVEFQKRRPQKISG
The assay can be described thus: PD-seq (MBP pull-down with sequencing); 20 mM Tris-HCl pH 7.5, 100 mM NaCl, 1.5 mM MgCl2, 0.4 uM protein, 0.1 uM dsDNA library, 30 min, room temperature, amylose pull-down; high values mean tight binding. The settings on record: protein: recombinant; tags: His6-MBP; chain copies: 2; dsDNA, one strand shown. The gist of the method: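 Protein and DNA were mixed at 0.4 µM and 0.1 µM and held for 30 min at room temperature in Tris pH 7.5 buffer with NaCl and MgCl2; the protein was a His6-MBP-tagged, N-terminally truncated mouse FoxP3 or FoxP1 fragment from E. coli, and the DNA a Klenow-filled double-stranded degenerate library. Amylose resin captured the complexes, which were washed three times. Binding is read as reads-per-million enrichment of pull-down versus input after Illumina sequencing, with replicates pooled.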
As to “GATGATTGTTCTCCCAGCTGATGAATTATAGCCCTCGAGTAAACAAATTTTCCTAATCTTTCTGTTCAAGCGCCATCTAC”, the binding signal is 0.904 RPM ratio (pull-down/input). With “GATGATTGTTCTCCCAGCTGATGAATTGGTAATCTCGAGTAAACAAATTTTCCTAATCTTTCTGTTCAAGCGCCATCTAC” the figure was 1.03 RPM ratio (pull-down/input).

Turning to “GATGATTGTTCTCCCAGCTGATGAATTACGTAACTCGAGTAAACAAATTTTCCTAATCTTTCTGTTCAAGCGCCATCTAC”, the binding signal was 1.08 RPM ratio (pull-down/input). With “GATGATTGTTCTCCCAGCTGATGAATTGCATCCTTCGAGTAAACAAATTTTCCTAATCTTTCTGTTCAAGCGCCATCTAC” the figure was 1.67 RPM ratio (pull-down/input); with “GATGATTGTTCTCCCAGCTGATGAATTTTGGCAATCGAGTAAACAAATTTTCCTAATCTTTCTGTTCAAGCGCCATCTAC”, 1.14 RPM ratio (pull-down/input); with “GATGATTGTTCTCCCAGCTGATGAATTCTACGGATCGAGTAAACAAATTTTCCTAATCTTTCTGTTCAAGCGCCATCTAC”, 0.818 RPM ratio (pull-down/input).

For the sequence “GATGATTGTTCTCCCAGCTGATGAATTCAACCTTTCGAGTAAACAAATTTTCCTAATCTTTCTGTTCAAGCGCCATCTAC”, the binding signal is 0.896 RPM ratio (pull-down/input). As to “GATGATTGTTCTCCCAGCTGATGAATTATTGACTTCGAGTAAACAAATTTTCCTAATCTTTCTGTTCAAGCGCCATCTAC”, the binding signal was 1.55 RPM ratio (pull-down/input). With “GATGATTGTTCTCCCAGCTGATGAATTCGCTTGCTCGAGTAAACAAATTTTCCTAATCTTTCTGTTCAAGCGCCATCTAC” the figure was 0.817 RPM ratio (pull-down/input); with “GATGATTGTTCTCCCAGCTGATGAATTACGAGTATCGAGTAAACAAATTTTCCTAATCTTTCTGTTCAAGCGCCATCTAC”, 1.15 RPM ratio (pull-down/input).

In the case of “GATGATTGTTCTCCCAGCTGATGAATTGAGCTCGTCGAGTAAACAAATTTTCCTAATCTTTCTGTTCAAGCGCCATCTAC”, the binding signal was 0.799 RPM ratio (pull-down/input). Regarding “GATGATTGTTCTCCCAGCTGATGAATTTTCTGAGTCGAGTAAACAAATTTTCCTAATCTTTCTGTTCAAGCGCCATCTAC”, the binding signal is 0.999 RPM ratio (pull-down/input). Turning to “GATGATTGTTCTCCCAGCTGATGAATTACACTAGTCGAGTAAACAAATTTTCCTAATCTTTCTGTTCAAGCGCCATCTAC”, the binding signal is 1.11 RPM ratio (pull-down/input). Turning to “GATGATTGTTCTCCCAGCTGATGAATTGGTTGGGTCGAGTAAACAAATTTTCCTAATCTTTCTGTTCAAGCGCCATCTAC”, the binding signal is 0.925 RPM ratio (pull-down/input). With “GATGATTGTTCTCCCAGCTGATGAATTATCTACATCGAGTAAACAAATTTTCCTAATCTTTCTGTTCAAGCGCCATCTAC” the figure was 1.12 RPM ratio (pull-down/input); with “GATGATTGTTCTCCCAGCTGATGAATTCATGGTATCGAGTAAACAAATTTTCCTAATCTTTCTGTTCAAGCGCCATCTAC”, 0.938 RPM ratio (pull-down/input); with “GATGATTGTTCTCCCAGCTGATGAATTAGGCATCTCGAGTAAACAAATTTTCCTAATCTTTCTGTTCAAGCGCCATCTAC”, 1.03 RPM ratio (pull-down/input). On to “GATGATTGTTCTCCCAGCTGATGAATTCACCTAATCGAGTAAACAAATTTTCCTAATCTTTCTGTTCAAGCGCCATCTAC”, for which the binding signal is 0.986 RPM ratio (pull-down/input).

Consider “GATGATTGTTCTCCCAGCTGATGAATTAACGGTGTCGAGTAAACAAATTTTCCTAATCTTTCTGTTCAAGCGCCATCTAC”, for which the binding signal is 0.934 RPM ratio (pull-down/input). Turning to “GATGATTGTTCTCCCAGCTGATGAATTTTGTTTGTCGAGTAAACAAATTTTCCTAATCTTTCTGTTCAAGCGCCATCTAC”, the binding signal was 2.66 RPM ratio (pull-down/input). For the sequence “GATGATTGTTCTCCCAGCTGATGAATTAACGGAATCGAGTAAACAAATTTTCCTAATCTTTCTGTTCAAGCGCCATCTAC”, the binding signal was 1.06 RPM ratio (pull-down/input). In the case of “GATGATTGTTCTCCCAGCTGATGAATTACCCGATTCGAGTAAACAAATTTTCCTAATCTTTCTGTTCAAGCGCCATCTAC”, the binding signal is 0.883 RPM ratio (pull-down/input). With “GATGATTGTTCTCCCAGCTGATGAATTGTTGTCCTCGAGTAAACAAATTTTCCTAATCTTTCTGTTCAAGCGCCATCTAC”, the binding signal is 2.28 RPM ratio (pull-down/input).

For the sequence “GATGATTGTTCTCCCAGCTGATGAATTATCTACCTCGAGTAAACAAATTTTCCTAATCTTTCTGTTCAAGCGCCATCTAC”, the binding signal was 0.893 RPM ratio (pull-down/input). Consider “GATGATTGTTCTCCCAGCTGATGAATTTGTGCCTTCGAGTAAACAAATTTTCCTAATCTTTCTGTTCAAGCGCCATCTAC”, for which the binding signal was 1.17 RPM ratio (pull-down/input).

Take “GATGATTGTTCTCCCAGCTGATGAATTGTTTCTATCGAGTAAACAAATTTTCCTAATCTTTCTGTTCAAGCGCCATCTAC”: the binding signal was 1.39 RPM ratio (pull-down/input). For the sequence “GATGATTGTTCTCCCAGCTGATGAATTACTACGCTCGAGTAAACAAATTTTCCTAATCTTTCTGTTCAAGCGCCATCTAC”, the binding signal is 1.01 RPM ratio (pull-down/input). On to “GATGATTGTTCTCCCAGCTGATGAATTGACTCTATCGAGTAAACAAATTTTCCTAATCTTTCTGTTCAAGCGCCATCTAC”, for which the binding signal is 1.1 RPM ratio (pull-down/input). Take “GATGATTGTTCTCCCAGCTGATGAATTTTCTCTATCGAGTAAACAAATTTTCCTAATCTTTCTGTTCAAGCGCCATCTAC”: the binding signal is 0.946 RPM ratio (pull-down/input).

Regarding “GATGATTGTTCTCCCAGCTGATGAATTAACTCACTCGAGTAAACAAATTTTCCTAATCTTTCTGTTCAAGCGCCATCTAC”, the binding signal was 0.933 RPM ratio (pull-down/input). With “GATGATTGTTCTCCCAGCTGATGAATTAGTGCCATCGAGTAAACAAATTTTCCTAATCTTTCTGTTCAAGCGCCATCTAC” the figure was 1 RPM ratio (pull-down/input). “GATGATTGTTCTCCCAGCTGATGAATTGCCGTCTTCGAGTAAACAAATTTTCCTAATCTTTCTGTTCAAGCGCCATCTAC”: the binding signal is 0.938 RPM ratio (pull-down/input).
